Experimental data taken from PMC2782911 (Cancer, 2009).

Test system: HDACs in MCF7 cells
Assay: HDAC activity in lysates of MCF7 cells cultured with compound
Conditions: SLC5A8 cDNA-transfected MCF7 cells cultured with 1 mM compound

| SMILES | reduction of the activity of HDACs |
| --- | --- |
| CC(=O)C(=O)O [pyruvate] | 70-80% |
| O=C(O)C(=O)CBr [3-bromopyruvate] | 70-80% |
